{"source": "patent US12116397B2", "about": "“IL-IR-I binding polypeptide” (Swedish Orphan Biovitrum AB (publ), priority 2017, dated 2024)"}
{"target": "T1, hIL-1R-I-Fc (Homo sapiens, UniProt P14778)", "T1 construct": "purchased Creative BioMart IL1 RI-771H", "T1 sequence (P14778 with tags, fused parts or gaps limits assumed)": "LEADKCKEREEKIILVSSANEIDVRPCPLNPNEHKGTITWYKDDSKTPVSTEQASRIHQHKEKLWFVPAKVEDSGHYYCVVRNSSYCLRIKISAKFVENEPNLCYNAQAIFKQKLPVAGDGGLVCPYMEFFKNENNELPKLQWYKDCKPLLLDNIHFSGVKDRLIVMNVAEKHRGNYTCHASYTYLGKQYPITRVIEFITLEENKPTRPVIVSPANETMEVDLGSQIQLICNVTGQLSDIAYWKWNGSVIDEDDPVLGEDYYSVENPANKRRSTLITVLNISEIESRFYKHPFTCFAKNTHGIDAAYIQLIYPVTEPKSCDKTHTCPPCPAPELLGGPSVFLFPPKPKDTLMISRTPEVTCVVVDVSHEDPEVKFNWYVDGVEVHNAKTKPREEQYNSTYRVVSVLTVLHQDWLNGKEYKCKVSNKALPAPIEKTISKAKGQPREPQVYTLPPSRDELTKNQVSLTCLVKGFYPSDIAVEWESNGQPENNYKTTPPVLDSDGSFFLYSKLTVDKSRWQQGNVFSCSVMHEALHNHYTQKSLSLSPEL", "experiment": "EC50 analysis of Z variants by ELISA target titration", "type": "binding", "settings": "periplasmic Z-ABD; hIL-1R-I-Fc 100 to 0.01 nM; first matured library (Example 4)", "protocol": "(§1) A selection of IL-1R-I binding Z variants was subjected to an analysis of response against a dilution series of hIL-1R-1-Fc using ELISA as described above. The target protein hIL-1R-1-Fc was diluted stepwise 1:10 from 100 to 0.01 nM. As a background control, the Z variants were assayed with no target protein added. Obtained data was analyzed using GraphPad Prism 5 and non-linear regression, and the EC50 values (the half maximal effective concentration) were calculated.\nas §1, with “calculated. A periplasmic extract with Z12967 (SEQ ID NO:9) was analyzed in parallel for signal comparison.” for “calculated.”\nas §1, with “binding” for “binding Z variants”, “20” for “100”, “0.002” for “0.01”, “calculated. Periplasmic extracts with Z12967, Z16065 and Z16218 (corresponding to SEQ ID:9, 268 and 414, respectively) were analyzed in parallel for signal comparison. As negative control, a periplasmic extract of ABD001 was used.” for “calculated.”", "units": {"EC50": "nM"}}
{"substance": "Z16058: IL-1R-I binding Z variant (VDAKYAKEVEEAQMEIFKLPNLTRKQYTAFIRKLLDDPSQSSELLSEAKKLNDSQAPK; Engineered IL-1R-I binding polypeptide)", "EC50": 0.23}
{"substance": "Z16070: IL-1R-I binding Z variant (VDAKYAKEIEEAQMEIYRLPNLTRKQYTAFIRKLFDDPSQSSELLSEAKKLNDSQAPK; Engineered IL-1R-I binding polypeptide)", "EC50": 0.23}
{"substance": "Z16084: IL-1R-I binding Z variant (VDAKYAKEIEIAQMEIFELPNLTRKQYTAFIRKLFDDPSQSSELLSEAKKLNDSQAPK; Engineered IL-1R-I binding polypeptide)", "EC50": 0.22}
{"substance": "Z16089: IL-1R-I binding Z variant (VDAKYAKEIESAYYEIFALPNLTRKQYTAFIRKLLDDPSQSSELLSEAKKLNDSQAPK; Engineered IL-1R-I binding polypeptide)", "EC50": 0.24}
{"substance": "Z16092: IL-1R-I binding Z variant (VDAKYAKEIEQAQMEIYRLPNLTRKQYTAFIRKLLDDPSQSSELLSEAKKLNDSQAPK; Engineered IL-1R-I binding polypeptide)", "EC50": 0.24}
{"substance": "Z16102: IL-1R-I binding Z variant (VDAKYAKEVETAQMEIYQLPNLTRKQYTAFIRKLFDDPSQSSELLSEAKKLNDSQAPK; Engineered IL-1R-I binding polypeptide)", "EC50": 0.28}
{"substance": "Z16106: IL-1R-I binding Z variant (VDAKYAKEVEDAQMEIFKLPNLTRKQYTAFIRKLFDDPSQSSELLSEAKKLNDSQAPK; Engineered IL-1R-I binding polypeptide)", "EC50": 0.23}
{"substance": "Z16121: IL-1R-I binding Z variant (VDAKYAKEVEDAYFEIYNLPNLTRKQYTAFIRKLLDDPSQSSELLSEAKKLNDSQAPK; Engineered IL-1R-I binding polypeptide)", "EC50": 0.23}
{"substance": "Z16122: IL-1R-I binding Z variant (VDAKYAKEAEDAYMEIYSLPNLTRRQYTAFIRKLLDDPSQSSELLSEAKKLNDSQAPK; Engineered IL-1R-I binding polypeptide)", "EC50": 0.29}
{"substance": "Z16135: IL-1R-I binding Z variant (VDAKYAKEVELAQHEIFQLPNLTRKQYTAFIRKLFDDPSQSSELLSEAKKLNDSQAPK; Engineered IL-1R-I binding polypeptide)", "EC50": 0.25}
{"substance": "Z16141: IL-1R-I binding Z variant (VDAKYAKEVVQAYDEIYGLPNLTRKQYTAFIRKLLDDPSQSSELLSEAKKLNDSQAPK; Engineered IL-1R-I binding polypeptide)", "EC50": 0.28}
{"substance": "Z16155: IL-1R-I binding Z variant (VDAKYAKETWYAQMEIFSLPNLTRKQYTAFIRKLLDDPSQSSELLSEAKKLNDSQAPK; Engineered IL-1R-I binding polypeptide)", "EC50": 0.29}
{"substance": "Z16156: IL-1R-I binding Z variant (VDAKYAKEIERAQMEIFSLPNLTRKQYTAFIRKLLDDPSQSSELLSEAKKLNDSQAPK; Engineered IL-1R-I binding polypeptide)", "EC50": 0.24}
{"substance": "Z16161: IL-1R-I binding Z variant (VDAKYAKEVEYAQMEIYSLPNLTRRQYTAFIRKLLDDPSQSSELLSEAKKLNDSQAPK; Engineered IL-1R-I binding polypeptide)", "EC50": 0.25}
{"substance": "Z16162: IL-1R-I binding Z variant (VDAKYAKEAESAYWEIYHLPNLTRKQYTAFIRKLLDDPSQSSELLSEAKKLNDSQAPK; Engineered IL-1R-I binding polypeptide)", "EC50": 0.27}
{"substance": "Z16164: IL-1R-I binding Z variant (VDAKYAKEVEEAYMEIYNLPNLTRKQYTAFIRKLLDDPSQSSELLSEAKKLNDSQAPK; Engineered IL-1R-I binding polypeptide)", "EC50": 0.68}
{"substance": "Z16168: IL-1R-I binding Z variant (VDAKYAKEAVSAYWEIFALPNLTRRQYTAFIRKLLDDPSQSSELLSEAKKLNDSQAPK; Engineered IL-1R-I binding polypeptide)", "EC50": 0.28}
{"substance": "Z16173: IL-1R-I binding Z variant (VDAKYAKEIEAAYAEIYQLPNLTRKQYTAFIRKLLDDPSQSSELLSEAKKLNDSQAPK; Engineered IL-1R-I binding polypeptide)", "EC50": 0.36}
{"substance": "Z16178: IL-1R-I binding Z variant (VDAKYAKEVEEAQMEIFFLPNLTRKQYTAFIIKLFDDPSQSSELLSEAKKLNDSQAPK; Engineered IL-1R-I binding polypeptide)", "EC50": 0.24}
{"substance": "Z16206: IL-1R-I binding Z variant (VDAKYAKEVEEAQMEIFNLPNLTRKQYTAFIRKLFDDPSQSSELLSEAKKLNDSQAPK; Engineered IL-1R-I binding polypeptide)", "EC50": 0.45}
{"substance": "Z16207: IL-1R-I binding Z variant (VDAKYAKEVEEAQMEIYNLPNLTRKQYTAFIRKLLDDPSQSSELLSEAKKLNDSQAPK; Engineered IL-1R-I binding polypeptide)", "EC50": 0.22}
{"substance": "Z16234: IL-1R-I binding Z variant (VDAKYAKEVEDAYYEIYSLPNLTRKQYTAFIRKLLDDPSQSSELLSEAKKLNDSQAPK; Engineered IL-1R-I binding polypeptide)", "EC50": 0.54}
{"substance": "Z16236: IL-1R-I binding Z variant (VDAKYAKETEEAQMEIFNLPNLTRKQYTAFIRKLLDDPSQSSELLSEAKKLNDSQAPK; Engineered IL-1R-I binding polypeptide)", "EC50": 0.24}
{"substance": "Z16241: IL-1R-I binding Z variant (VDAKYAKEVEDAYWEIYALPNLTRKQYTAFIRKLLDDPSQSSELLSEAKKLNDSQAPK; Engineered IL-1R-I binding polypeptide)", "EC50": 0.49}
{"substance": "Z16243: IL-1R-I binding Z variant (VDAKYAKEVEEAYMEIYQLPNLTRKQYTAFIRKLLDDPSQSSELLSEAKKLNDSQAPK; Engineered IL-1R-I binding polypeptide)", "EC50": 0.22}
{"substance": "Z16246: IL-1R-I binding Z variant (VDAKYAKEVEDAYMEIFKLPNLTRKQYTAFIRKLLDDPSQSSELLSEAKKLNDSQAPK; Engineered IL-1R-I binding polypeptide)", "EC50": 0.39}
{"substance": "Z16263: IL-1R-I binding Z variant (VDAKYAKEAEKAYWEIYALPNLTRKQYTAFIRKLLDDPSQSSELLSEAKKLNDSQAPK; Engineered IL-1R-I binding polypeptide)", "EC50": 0.26}
{"substance": "Z16264: IL-1R-I binding Z variant (VDAKYAKEVEVAYFEIFALPNLTRKQYTAFIRKLLDDPSQSSELLSEAKKLNDSQAPK; Engineered IL-1R-I binding polypeptide)", "EC50": 0.3}
{"substance": "Z16277: IL-1R-I binding Z variant (VDAKYAKEVEDAYYEIYELPNLTRKQYTAFIRKLLDDPSQSSELLSEAKKLNDSQAPK; Engineered IL-1R-I binding polypeptide)", "EC50": 0.26}
{"substance": "Z16302: IL-1R-I binding Z variant (VDAKYAKEVETAYFEIYNLPNLTRKQYTAFIRKLLDDPSQSSELLSEAKKLNDSQAPK; Engineered IL-1R-I binding polypeptide)", "EC50": 0.28}
{"substance": "Z16305: IL-1R-I binding Z variant (VDAKYAKEVESAYFEIYSLPNLTRKQYTAFIRKLLDDPSQSSELLSEAKKLNDSQAPK; Engineered IL-1R-I binding polypeptide)", "EC50": 0.22}
{"substance": "Z16312: IL-1R-I binding Z variant (VDAKYAKEVEKAQMEIFDLPNLTRKQYTAFIRKLLDDPSQSSELLSEAKKLNDSQAPK; Engineered IL-1R-I binding polypeptide)", "EC50": 0.24}
{"substance": "Z16319: IL-1R-I binding Z variant (VDAKYAKEIEEAQMEIFSLPNLTRKQYTAFIRKLFDDPSQSSELLSEAKKLNDSQAPK; Engineered IL-1R-I binding polypeptide)", "EC50": 0.3}
{"substance": "Z16321: IL-1R-I binding Z variant (VDAKYAKEIEEAQMEIYTLPNLTRKQYTAFIRKLLDDPSQSSELLSEAKKLNDSQAPK; Engineered IL-1R-I binding polypeptide)", "EC50": 0.27}
{"substance": "Z16329: IL-1R-I binding Z variant (VDAKYAKEVEDAYFEIYKLPNLTRKQYTAFIRKLLDDPSQSSELLSEAKKLNDSQAPK; Engineered IL-1R-I binding polypeptide)", "EC50": 0.45}
{"substance": "Z16388: IL-1R-I binding Z variant (VDAKYAKEHEDAYMEIYALPNLTRKQYTAFIRKLLDDPSQSSELLSEAKKLNDSQAPK; Engineered IL-1R-I binding polypeptide)", "EC50": 0.29}
{"substance": "Z16405: IL-1R-I binding Z variant (VDAKYAKETEDAYFEIYHLPNLTRKQYTAFIRKLLDDPSQSSELLSEAKKLNDSQAPK; Engineered IL-1R-I binding polypeptide)", "EC50": 0.36}
{"substance": "Z16678: IL-1R-I binding Z variant (VDAKYAKEVEVAYFEIYALPNLTRKQYTAFIRKLLDDPSQSSELLSEAKKLNDSQAPK; Engineered IL-1R-I binding polypeptide)", "EC50": 0.24}
{"substance": "Z16688: IL-1R-I binding Z variant (VDAKYAKEVKDAQFEIFALPNLTRKQYTAFIRKLFDDPSQSSELLSEAKKLNDSQAPK; Engineered IL-1R-I binding polypeptide)", "EC50": 0.27}
{"substance": "Z16749: IL-1R-I binding Z variant (VDAKYAKEVEAAYYEIYGLPNLTRKQYTAFIRKLLDDPSQSSELLSEAKKLNDSQAPK; Engineered IL-1R-I binding polypeptide)", "EC50": 0.27}
